PubChem BioAssay AID686978 (National Center for Advancing Translational Sciences (NCATS), 2013)
About 64,000 (15%) of roughly 420,000 compounds were called active. The shares of active, inactive and inconclusive entries below differ from those in the screen. Calls follow the shape of the dose curve; as a rule, active = well fitted inhibition curve with a large enough effect; inconclusive = small, poorly fitted or top-dose-only effect; inactive = flat fitted curve, though single readings scatter. No potency is given beside an inconclusive call; the fits are too rough.

Assay: qHTS for Inhibitors of human tyrosyl-DNA phosphodiesterase 1 (TDP1): qHTS in cells in absence of CPT; also: nearly all actives have a fitted effect of over 55% in size
Conditions: DT40 Tdp1-/- hTDP1 cells, no CPT, ATP luminescence, 48 h; activity change, negative = growth inhibition: at 46.2 µM (top of the series) unless noted
How it was run: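 No-CPT arm: Tdp1-/-;hTDP1 DT40 cells (400/well) plus compounds, incubated ≥48 hr at 37 °C. Readout CellTiter-Glo luminescence.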
% is scaled to controls: 0 for no effect and ±100 for the full control effect; potency is read from the fitted curve at half-maximal effect; tags tell the direction and shape of the fitted curve.

Row | SMILES | Potency | activity change, negative = growth inhibition
1 | O=C(Nc1ccccc1C(=O)Nc1ccc2c(c1)OCO2)c1cccs1 | inconclusive [inhibitor, single point] | –
2 | CN(CC(=O)Nc1cccc(F)c1)C(=O)CCCn1c(=O)oc2ccccc21 | – | inactive: -3.62%
3 | CC1CCN(c2nc3ccccc3nc2C(F)(F)F)CC1 | – | inactive: -9.4%
4 | CCOC(=O)c1c(NC(=O)C2CC(Cl)=CCC2C(=O)O)sc2c1CC(C)(C)OC2 (centres undefined) | – | inactive: 1.25%
5 | CCOC(=O)C1/C(=N\O)CC(C)(O)C(C(=O)OCC)C1c1ccc(N(C)C)cc1 (centres undefined) | – | inconclusive: -10.5% [inhibitor]
6 | COC(=O)C(O)(CC(=O)Nc1cccc(SC)c1)C(F)(F)F (centres undefined) | – | inactive: -14.7%
7 | COC(=O)c1c(NC(=O)Cc2ccccc2)sc(C)c1C | inconclusive [inhibitor, single point] | –
8 | Cc1ccc(C(C(=O)NCC2CCCO2)N(Cc2ccccc2)C(=O)c2ccc(-c3ccccc3)[nH]2)o1 (centres undefined) | inconclusive [inhibitor, single point] | –
9 | O=C(CSc1nccn1-c1ncc(C(F)(F)F)cc1Cl)c1ccc(Br)cc1 | inconclusive [inhibitor, full curve, poor fit] | –
10 | COc1c(O)cc2c(c1O)[C@@H]1O[C@H](CO)[C@@H](O)[C@H](O)[C@H]1OC2=O | inactive | –
11 | CCN(CC)c1ccc(/C=C/c2ccc3ccccc3n2)cc1 | active: 0.158 µM | –
12 | CCC1OC(=O)C(C)[C@@H](O[C@H]2C[C@@](C)(OC)C(O)C(C)O2)C(C)[C@@H](O[C@@H]2OC(C)CC(N(C)C)C2O)[C@@](C)(O)CC(C)CN(C)C(C)C(O)[C@]1(C)O (some centres undefined) | inconclusive [inhibitor, single point] | –
13 | COc1ccc(CNC(=O)C2CCC(CNS(=O)(=O)c3ccc(C)cc3)CC2)cc1 (centres undefined) | – | inconclusive: -32.8% [inhibitor]
14 | Cc1c(Cl)cccc1NC(=O)C1Cc2ccccc2CN1C(=O)c1ccccc1 (centres undefined) | inconclusive [inhibitor, single point] | –
15 | O=C(/C=C/c1ccccc1)N1CCOCC1 | – | inactive: 12.5%
16 | CCc1ccc(N2C(=O)C(Cl)=C(N3CCOCC3)C2=O)cc1 | – | inactive: -24.9%
17 | O=C(c1ccc2c(c1)OCCO2)C1CCN(C(=O)c2ccc(F)cc2)CC1 | inconclusive [inhibitor, single point] | –
18 | CCN(CC)S(=O)(=O)c1nnc(NC(=O)c2ccc(C)cc2)s1 | inconclusive [inhibitor, single point] | –
19 | O/C(=C\c1nc2ccccc2nc1/C=C(\O)c1ccccc1)c1ccccc1 | inconclusive [inhibitor, single point] | –
